# Whole data set: some 33,000 sequences, median “E-score (-0.5 to 0.5)” near -0.016, cut for the highest 2% near 0.32. Some of the results follow.
# Target: T1, Stp1 (UniProt B3LFK1)
# T1 sequence: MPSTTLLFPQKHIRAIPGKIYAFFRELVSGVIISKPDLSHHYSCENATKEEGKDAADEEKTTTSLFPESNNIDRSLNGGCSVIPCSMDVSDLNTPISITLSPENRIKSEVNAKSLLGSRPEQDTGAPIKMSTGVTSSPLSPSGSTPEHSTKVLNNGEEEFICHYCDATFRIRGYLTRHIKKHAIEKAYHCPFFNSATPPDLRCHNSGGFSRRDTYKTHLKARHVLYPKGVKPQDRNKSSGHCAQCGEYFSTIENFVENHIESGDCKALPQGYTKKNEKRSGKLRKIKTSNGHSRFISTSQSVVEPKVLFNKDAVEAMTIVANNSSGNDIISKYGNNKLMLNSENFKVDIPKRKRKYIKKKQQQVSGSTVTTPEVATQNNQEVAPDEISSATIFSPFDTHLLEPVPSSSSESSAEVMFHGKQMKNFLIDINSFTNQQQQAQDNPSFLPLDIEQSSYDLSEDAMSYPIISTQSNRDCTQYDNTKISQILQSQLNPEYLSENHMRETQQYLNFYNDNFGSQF
# Experiment: PBM E-score (8-mer binding enrichment) (E-score (-0.5 to 0.5)); higher = stronger / more preferred TF binding; most listed sequences are background and not binding sites
# Settings: protein concentration: 200 nM; construct: GST-full length
# Method in brief: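 GST-tagged yeast TFs (full-length or DNA-binding domain) were made by PURExpress in vitro transcription/translation and applied at about 100-200 nM to universal all-10-mer Agilent arrays. The arrays were made double-stranded by primer extension, on fresh or once-stripped slides. Bound protein was detected with fluorescent anti-GST, and scans were normalised with masliner. Each ungapped eight-base word, pooled with its reverse complement, received an E-score (modified Wilcoxon-Mann-Whitney statistic) from the Universal PBM Analysis Suite.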
row,Sequence,PBM E-score
1,CCTGGACG,-0.292
2,AACTAGGT,0.0442
3,ACGTTCCA,-0.0776
4,ACGCAATC,-0.0827
5,GGTGAACA,-0.108
6,AACTGAGG,0.016
7,AATGACTG,-0.245
8,AGCAATTA,0.0484
9,ACCAGATA,0.0921
10,AGACTAAT,-0.0406
11,CATGTAAC,0.0489
12,TAGAGTGA,-0.0691
13,AGCTGGCG,-0.131
14,CCCCACTC,-0.225
15,ACCTGCTC,-0.0541
16,CGCACGTC,0.132
17,GAGCCGTA,0.468
18,GCAATTCA,0.0517
19,CACCAATA,0.0685
20,CTGGGGTC,-0.344
21,AGGTATCG,0.0192
22,CGCTATTA,0.0923
23,CAAAGGAA,0.123
24,CATTTGGG,-0.0403
25,AAGTCTAT,-0.117

row,Sequence,PBM E-score
1,ACCGTCAC,-0.243
2,CTTAGGCA,-0.0386
3,AACGCTTA,-0.083
4,CGTTGTAG,-0.016
5,TATGCGAA,-0.0247
6,AAGAGGTA,-0.00795
7,GACATCTC,-0.152
8,GCCACTAC,-0.0571
9,AGCCCTGG,-0.241
10,GGCCCTCA,-0.276
11,ACGCATAA,0.162
12,ACACATTA,-0.0293
13,CCTTGCGA,0.0926
14,AGGGGGTA,-0.4
15,AGCTGGCA,-0.0867
16,AAACTGGC,-0.0924
17,ATCAGAAC,-0.063
18,ATACGGGG,0.0876
19,CTTTCGAC,-0.104
20,GCAACGGC,0.411
21,GGCACGTA,0.246
22,AGTCGGAG,-0.192
23,AACACACT,-0.0084
24,CCTAGCGC,-0.00646
25,CAACCGTC,-0.259

row,Sequence,PBM E-score
1,ACTTTCAC,0.0231
2,GCCTTCAA,-0.00288
3,ATATCGCC,0.322
4,AGTGCATG,-0.0175
5,TGACCCAA,-0.0481
6,CTCTAGTC,-0.279
7,ATATTGCA,-0.00326
8,TAGCCAAA,-0.0204
9,ATTATACC,0.148
10,GTCATACA,-0.0156
11,AAAGTACG,0.165
12,CGCAATTA,0.17
13,GTTTGATA,0.155
14,AATAGTAG,0.175
15,ACAAAGCT,0.0299
16,GTCGGCTA,-0.0709
17,GGATCGTA,0.0272
18,CCATTGAA,0.114
19,CTATCAGC,0.0102
20,ACACTCCA,-0.011
21,ATTACGTG,0.108
22,CGCTTACG,-0.167
23,GGATCTAA,-0.00936
24,CTAACCCC,-0.281
25,GAGGGATA,-0.298

row,Sequence,PBM E-score
1,CTCATGAC,-0.0816
2,AGACGGCG,0.463
3,AATCTGTG,0.154
4,AACTAGCG,0.0816
5,CCAAGCAG,0.0965
6,AACCAGTC,-0.0234
7,AGGCGTGG,-0.0393
8,ACACGTCA,-0.0247
9,ATTCCTCA,0.0196
10,CCGAAACA,0.178
11,AGCTGGAA,0.0236
12,CTTGACTA,-0.16
13,CCAAGACA,-0.137
14,CTCGCGAC,0.0888
15,TACGGGCA,0.115
16,ATAGATAG,-0.155
17,ACGCACAT,0.0704
18,AGTCTTTA,-0.129
19,AGTATCAT,0.149
20,CTTCTTAC,-0.172
21,GCCAATAA,0.12
22,AAAGCTGT,0.103
23,ACTATCGC,0.057
24,ACTAAGTC,-0.0456
25,CCCGGCCC,-0.416

row,Sequence,PBM E-score
1,TATAAAGA,-0.0524
2,CGTATTAA,0.162
3,ACCCTATG,-0.254
4,ACAGTCCG,-0.0579
5,GCGGGGCC,0.122
6,CAGCCCAC,-0.109
7,ACTCTCGA,-0.171
8,AGCTAGGG,-0.336
9,CAGGCTCC,-0.185
10,AACAAAAT,0.0791
11,AACCTACC,-0.294
12,AACCATCC,-0.128
13,AATGAACG,0.0312
14,AATACGAG,0.0155
15,CATAGTTC,0.00951
16,CGAACACC,-0.069
17,CTGGGGGA,-0.35
18,CAATGGGG,-0.00976
19,CCGCTCTA,0.106
20,AGGAGGAC,-0.267
21,CGGCATTA,0.436
22,ATTGGGCC,0.181
23,CCCAGCGG,-0.107
24,ATATAATC,0.0942
25,AACCACGG,0.0855

row,Sequence,PBM E-score
1,GCCTTCCC,0.0651
2,TCGTACGA,0.0984
3,GCATGGCC,-0.015
4,AGCGAACC,-0.121
5,ACGGTAGG,-0.212
6,AGGTCACT,-0.265
7,AGTGGAAC,-0.0597
8,CTGGGTAC,-0.0852
9,CAGGCTTA,-0.186
10,TAAACCTA,-0.0754
11,TCCGTAGA,0.0858
12,CGATAGCA,-0.222
13,ATGATCTA,0.0525
14,CTCATCAA,0.127
15,AGGGCGCC,0.343
16,CATACGGC,0.472
17,GATATAGA,0.0916
18,AAACCGTA,0.019
19,AATCATCC,-0.0602
20,ATTCGCTA,-0.0429
21,AGGCTAGA,-0.17
22,CTGTCTGC,-0.0925
23,CCTTCTAG,0.0336
24,ACCAGTAC,-0.105
25,CACGCACC,-0.0624

row,Sequence,PBM E-score
1,ACTAGGCT,0.0277
2,ACGGTTGG,-0.04
3,CTCAACCA,0.033
4,CGACCCCA,0.0203
5,AGTCGATG,-0.194
6,AAGCCAGT,-0.181
7,ATCGCTCG,0.0255
8,ACTACACT,-0.0657
9,ACGATAAC,-0.131
10,TTTATAAA,0.376
11,ACTGGAAC,-0.0147
12,AATCCCTG,-0.0247
13,ATGAGGTG,-0.0679
14,TGGACACA,-0.0894
15,GCAGGGTA,-0.191
16,GTGGCCAC,-0.0105
17,AGCGTTGA,-0.0269
18,GACGGTGC,-0.021
19,GAGGCAAA,0.239
20,AGGGAGGC,-0.121
21,ACTCGCGG,0.106
22,CGATGATC,-0.0137

# Reference: the supplement of paper PMC3334620
